Measured values: patent US20230322822A1, “ARYL PHOSPHOROUS OXIDE COMPOUNDS AND USE THEREOF” (Chengdu Di'ao Jiuhong Pharmaceutical Factory, priority 2020, published 2023)

Columns and labels:
Format in all cases: biochemical
Conditions in all cases: kinase
[1] = target: EGFR-T790M/L858R (Homo sapiens (Human), UniProt P00533, L858R/T790M); assay: Enzymatic activity test (ADP-Glo) EGFR-T790M/L858R
Experimental: (§1) • 1. […] Test information:
(§2) To assess the effect of compounds on the activity of wild-type and mutant EGFR kinases, kinase activity was tested by measuring ATP consumption in an enzymatic reaction using an ADP-Glo (Promega Corporation) kit. Samples to be tested were dissolved in DMSO and diluted in a gradient. In a microplate, an EGFR kinase, a reaction buffer (containing Tris-HCl with a pH of 7.5, MgCl2, DTT and BSA), a kinase substrate Poly(Glu4, Tyr1) and a sample (a total volume of 20 μL per well) were added per well, while a blank control (no enzyme and sample) and a negative control (no sample) were set up; incubated for 15 minutes at 23° C.; added with 5 μL of ATP, and reacted at 23° C. for 60 minutes; added with ADP-Glo Reagent, and continuously reacted for 40 minutes at room temperature to inactivate the redundant ATP; then, added with a Kinase Detection Reagent, and reacted at room temperature for 30 minutes, then the chemiluminescence intensity L of each well was measured. […] IC50 values were calculated according to the above calculation using 4Parameter Logistic Model in XLfit software. • 3.

[2] = target: EGFR-T790M/Del19 (Homo sapiens, UniProt P00533, T790M, form not given); assay: Enzymatic activity test (ADP-Glo) EGFR-T790M/Del19
Experimental: as §1, §2

[3] = target: EGFR-Del19 (Homo sapiens, UniProt P00533); assay: Enzymatic activity test (ADP-Glo) EGFR-Del19
Experimental: as §1, §2

EGFR-T790M/L858R, sequence (P00533 25-1210 T790M/L858R): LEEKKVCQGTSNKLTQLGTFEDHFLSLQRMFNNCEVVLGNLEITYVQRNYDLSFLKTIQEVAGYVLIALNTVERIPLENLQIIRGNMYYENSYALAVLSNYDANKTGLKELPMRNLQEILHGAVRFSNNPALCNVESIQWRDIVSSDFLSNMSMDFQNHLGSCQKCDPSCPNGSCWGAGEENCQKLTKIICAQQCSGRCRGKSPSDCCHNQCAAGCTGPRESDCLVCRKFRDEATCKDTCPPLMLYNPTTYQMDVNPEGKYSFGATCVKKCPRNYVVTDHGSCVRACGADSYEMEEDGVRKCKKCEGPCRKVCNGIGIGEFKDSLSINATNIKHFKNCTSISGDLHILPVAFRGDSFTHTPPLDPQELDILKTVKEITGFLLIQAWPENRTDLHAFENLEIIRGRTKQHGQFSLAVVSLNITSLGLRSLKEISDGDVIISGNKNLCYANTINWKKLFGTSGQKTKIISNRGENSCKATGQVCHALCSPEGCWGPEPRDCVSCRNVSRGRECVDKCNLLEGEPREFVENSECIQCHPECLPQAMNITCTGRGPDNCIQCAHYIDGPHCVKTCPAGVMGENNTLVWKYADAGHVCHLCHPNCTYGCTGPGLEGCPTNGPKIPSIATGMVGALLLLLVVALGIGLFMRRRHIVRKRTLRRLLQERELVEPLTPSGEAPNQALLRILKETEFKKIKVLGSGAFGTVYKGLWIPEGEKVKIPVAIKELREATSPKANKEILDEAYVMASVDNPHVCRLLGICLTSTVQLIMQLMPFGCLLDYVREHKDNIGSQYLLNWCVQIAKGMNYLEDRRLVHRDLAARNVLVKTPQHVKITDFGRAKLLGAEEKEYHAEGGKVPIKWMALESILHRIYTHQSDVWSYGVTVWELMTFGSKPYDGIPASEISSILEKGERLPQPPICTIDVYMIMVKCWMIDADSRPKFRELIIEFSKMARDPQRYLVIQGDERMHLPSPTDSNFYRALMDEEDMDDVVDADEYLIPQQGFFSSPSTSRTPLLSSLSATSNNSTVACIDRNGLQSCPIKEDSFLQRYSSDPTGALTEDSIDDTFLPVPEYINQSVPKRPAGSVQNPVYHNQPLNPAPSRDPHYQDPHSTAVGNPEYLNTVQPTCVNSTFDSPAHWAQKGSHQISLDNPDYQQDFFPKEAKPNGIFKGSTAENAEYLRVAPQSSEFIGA
EGFR-Del19, sequence (P00533 25-1210 limits assumed): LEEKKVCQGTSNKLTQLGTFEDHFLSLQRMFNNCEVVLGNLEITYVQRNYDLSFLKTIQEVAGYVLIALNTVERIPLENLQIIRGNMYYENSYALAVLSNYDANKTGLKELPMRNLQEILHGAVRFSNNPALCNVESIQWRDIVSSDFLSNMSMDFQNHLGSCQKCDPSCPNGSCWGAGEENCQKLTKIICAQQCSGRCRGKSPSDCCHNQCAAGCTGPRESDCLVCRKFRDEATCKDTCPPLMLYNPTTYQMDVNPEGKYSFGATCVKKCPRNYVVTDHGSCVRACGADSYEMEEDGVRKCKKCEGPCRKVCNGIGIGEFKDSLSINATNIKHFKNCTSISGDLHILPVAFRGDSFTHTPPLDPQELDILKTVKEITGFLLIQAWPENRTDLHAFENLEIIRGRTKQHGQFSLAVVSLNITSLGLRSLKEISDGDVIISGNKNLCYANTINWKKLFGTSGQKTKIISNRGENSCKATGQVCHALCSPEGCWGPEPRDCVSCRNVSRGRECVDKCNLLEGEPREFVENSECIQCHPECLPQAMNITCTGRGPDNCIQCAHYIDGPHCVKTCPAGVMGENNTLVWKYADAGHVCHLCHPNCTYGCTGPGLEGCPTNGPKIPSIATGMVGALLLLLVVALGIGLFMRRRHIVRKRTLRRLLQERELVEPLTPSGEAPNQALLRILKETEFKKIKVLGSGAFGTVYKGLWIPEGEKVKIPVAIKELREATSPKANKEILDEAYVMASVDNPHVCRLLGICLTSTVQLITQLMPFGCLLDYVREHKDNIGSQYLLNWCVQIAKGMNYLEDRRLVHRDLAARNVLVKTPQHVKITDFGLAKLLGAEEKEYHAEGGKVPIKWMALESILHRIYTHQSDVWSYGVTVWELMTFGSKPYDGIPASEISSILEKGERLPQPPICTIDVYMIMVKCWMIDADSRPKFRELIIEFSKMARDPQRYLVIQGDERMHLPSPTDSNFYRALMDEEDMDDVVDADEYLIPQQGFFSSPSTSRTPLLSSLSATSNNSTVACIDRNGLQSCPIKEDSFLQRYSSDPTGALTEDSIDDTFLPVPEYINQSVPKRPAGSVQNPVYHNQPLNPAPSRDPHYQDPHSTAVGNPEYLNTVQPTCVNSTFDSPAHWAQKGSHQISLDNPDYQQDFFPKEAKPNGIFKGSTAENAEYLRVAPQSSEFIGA

SMILES	pIC50 [1]	pIC50 [2]	pIC50 [3]
COc1cc(N2CCC(N3CCN(C)CC3)CC2)ccc1Nc1ncc(Cl)c(Nc2ccc(C)cc2P(C)(C)=O)n1 [Control compound 3, reference compound]	< 6.60	< 6.60	< 6.60
COc1cc(N2CCC(N3CCN(C)CC3)CC2)c(C)cc1Nc1ncc(Cl)c(Nc2ccccc2P(C)(C)=O)n1 [Control compound 2, reference compound]	< 6.60	–	–

pIC50: −log10 of the molar value.
